# Measurements as given in the supplement of paper PMC12217912.
# The list shows a part of the results. Sequences were assembled here from the parent chain. Values near 0.05 are background.
# B1: TEV protease; numbered along this chain (parent)
# chain: MGESLFKGPRDYNPISSSICHLTNESDGHTTSLYGIGFGPFIITNKHLFRRNNGTLVVQSLHGVFKVKDTTTLQQHLVDGRDMIIIRMPKDFPPFPQKLKFREPQREERICLVTTNFQTKSMSSMVSDTSCTFPSGDGIFWKHWIQTKDGQCGSPLVSTRDGFIVGIHSASNFTNTNNYFTSVPKNFMELLTNQEAQQWVSGWRLNADSVLWGGHKVFMVKPEEPFQPVKEATQL
# Variants of: B1
# Test: raw area under fraction-flipped curve 0-4 h after induction (AUC4h, not background-subtracted), DNA-recorder readout of cleavage of the substrate (dimensionless); higher = more cleavage of the substrate by the protease variant
# Conditions: temperature: 34 °C; time window: 0-4 h after rhamnose induction
# 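Also: Bxb1 expression induced with 0.2% (w/v) L-rhamnose at OD600 near 0.5, cultures sampled hourly, flipped fraction per protease–substrate barcode pair counted by paired-end Illumina sequencing.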
Variant,area with substrate ENLCFQS,area with substrate ENLDFQS,area with substrate ENLEFQS,area with substrate ENLFFQS,area with substrate ENLIFQS,area with substrate ENLKFQS,area with substrate ENLLFQS,area with substrate ENLNFQS,area with substrate ENLPFQS,area with substrate ENLQFQS
MGESLFKGPRDYNPISSSICHLTNESDGHTTSLYGIGFGPFIITNKHLFRRNNGTLVVQSLHGVFKVKDTTTLQQHLVDGRDMIIIRMPKDFPPFPQKLKFREPQREERICLVTTNFQTKSMSSMVSDTSCTFPSGDGIFWKHWIQTKDGQCGSPLVSTRDGFIVGIHSASNFTNTNNYFTSVPKNFMELLTNQEAQQWVSGWRLNADSVLWGGHKVFMVKPEEPFQPVKEATDL [Q234D],0.0772,0.0668,0.058,0.104,0.118,0.0685,0.0688,0.0589,0.0596,0.064
MGESLFKGPRDYNPISSSICHLTNESDGHTTSLYGIGFGPFIITNKHLFRRNNGTLVVQSLHGVFKVKDTTTLQQHLVDGRDMIIIRMPKDFPPFPQKLKFREPQREERICLVTTNFQTKSMSSMVSDTSCTFPSGDGIFWKHWIQTKDGQCGSPLVSTRDGFIVGIHSASNFTNTNNYFTSVPKNFMELLTNQEAQQWVSGWRLNADSVLWGGHKVFMVKPEEPFQPVKEATQA [L235A],0.0761,0.077,0.0682,0.0725,,0.0833,0.0671,0.0671,0.0641,0.0672
MGESLFKGPRDYNPISSSICHLTNESDGHTTSLYGIGFGPFIITNKHLFRRNNGTLVVQSLHGVFKVKDTTTLQQHLVDGRDMIIIRMPKDFPPFPQKLKFREPQREERICLVTTNFQTKSMSSMVSDTSCTFPSGDGIFWKHWIQTKDGQCGSPLVSTRDGFIVGIHSASNFTNTNNYFTSVPKNFMELLTNQEAQQWVSGWRLNADSVLWGGHKVFMVKPEEPFQPVKEATQN [L235N],0.0726,0.0943,0.0718,0.0951,,0.0595,,0.0637,0.0467,
MGISLFKGPRDYNPISSSICHLTNESDGHTTSLYGIGFGPFIITNKHLFRRNNGTLVVQSLHGVFKVKDTTTLQQHLVDGRDMIIIRMPKDFPPFPQKLKFREPQREERICLVTTNFQTKSMSSMVSDTSCTFPSGDGIFWKHWIQTKDGQCGSPLVSTRDGFIVGIHSASNFTNTNNYFTSVPKNFMELLTNQEAQQWVSGWRLNADSVLWGGHKVFMVKPEEPFQPVKEATQL [E3I],,0.0582,0.0671,0.105,,,,0.0671,0.0534,
MGESLFKGPRDYNPISSSICHLTNESDGHVTSLYGIGFGPFIITNKHLFRRNNGTLVVQSLHGVFKVKDTTTLQQHLVDGRDMIIIRMPKDFPPFPQKLKFREPQREERICLVTTNFQTKSMSSMVSDTSCTFPSGDGIFWKHWIQTKDGQCGSPLVSTRDGFIVGIHSASNFTNTNNYFTSVPKNFMELLTNQEAQQWVSGWRLNADSVLWGGHKVFMVKPEEPFQPVKEATQL [T30V],,0.116,0.0575,0.107,,,,0.0695,0.0462,0.0899
MGESLFKGPRDYNPISSSICHLTNESDGHTHSLYGIGFGPFIITNKHLFRRNNGTLVVQSLHGVFKVKDTTTLQQHLVDGRDMIIIRMPKDFPPFPQKLKFREPQREERICLVTTNFQTKSMSSMVSDTSCTFPSGDGIFWKHWIQTKDGQCGSPLVSTRDGFIVGIHSASNFTNTNNYFTSVPKNFMELLTNQEAQQWVSGWRLNADSVLWGGHKVFMVKPEEPFQPVKEATQL [T31H],,0.0566,0.0602,0.0784,,0.0786,0.0703,0.0579,0.0454,0.0613
MGESLFKGPRDYNPISSSICHLTNESDGHTTSEYGIGFGPFIITNKHLFRRNNGTLVVQSLHGVFKVKDTTTLQQHLVDGRDMIIIRMPKDFPPFPQKLKFREPQREERICLVTTNFQTKSMSSMVSDTSCTFPSGDGIFWKHWIQTKDGQCGSPLVSTRDGFIVGIHSASNFTNTNNYFTSVPKNFMELLTNQEAQQWVSGWRLNADSVLWGGHKVFMVKPEEPFQPVKEATQL [L33E],,0.0606,0.0623,0.0559,,0.0778,0.0822,0.0618,0.0631,
MGESLFKGPRDYNPISSSICHLTNESDGHTTSLWGIGFGPFIITNKHLFRRNNGTLVVQSLHGVFKVKDTTTLQQHLVDGRDMIIIRMPKDFPPFPQKLKFREPQREERICLVTTNFQTKSMSSMVSDTSCTFPSGDGIFWKHWIQTKDGQCGSPLVSTRDGFIVGIHSASNFTNTNNYFTSVPKNFMELLTNQEAQQWVSGWRLNADSVLWGGHKVFMVKPEEPFQPVKEATQL [Y34W],,0.0725,,,0.0826,,0.0594,0.0626,,
MGESLFKGPRDYNPISSSICHLTNESDGHTTSLYCIGFGPFIITNKHLFRRNNGTLVVQSLHGVFKVKDTTTLQQHLVDGRDMIIIRMPKDFPPFPQKLKFREPQREERICLVTTNFQTKSMSSMVSDTSCTFPSGDGIFWKHWIQTKDGQCGSPLVSTRDGFIVGIHSASNFTNTNNYFTSVPKNFMELLTNQEAQQWVSGWRLNADSVLWGGHKVFMVKPEEPFQPVKEATQL [G35C],,0.0422,0.0685,,0.0663,,,0.0521,0.0616,

# Same assay, conditions: temperature: 34 °C; time window: 0-4 h after rhamnose induction
Variant,area with substrate ENLRFQS,area with substrate ENLSFQS,area with substrate ENLHFQS,area with substrate ENLVFQS,area with substrate ENLWFQS,area with substrate ENLGFQS,area with substrate ENLMFQS
MGESLFKGPRDYNPISSSICHLTNESDGHTTSLYGIGFGPFIITNKHLFRRNNGTLVVQSLHGVFKVKDTTTLQQHLVDGRDMIIIRMPKDFPPFPQKLKFREPQREERICLVTTNFQTKSMSSMVSDTSCTFPSGDGIFWKHWIQTKDGQCGSPLVSTRDGFIVGIHSASNFTNTNNYFTSVPKNFMELLTNQEAQQWVSGWRLNADSVLWGGHKVFMVKPEEPFQPVKEATDL [Q234D],0.0957,0.0675,,,,,
MGESLFKGPRDYNPISSSICHLTNESDGHTTSLYGIGFGPFIITNKHLFRRNNGTLVVQSLHGVFKVKDTTTLQQHLVDGRDMIIIRMPKDFPPFPQKLKFREPQREERICLVTTNFQTKSMSSMVSDTSCTFPSGDGIFWKHWIQTKDGQCGSPLVSTRDGFIVGIHSASNFTNTNNYFTSVPKNFMELLTNQEAQQWVSGWRLNADSVLWGGHKVFMVKPEEPFQPVKEATQA [L235A],0.0788,0.0403,0.072,0.0714,0.0596,,
MGESLFKGPRDYNPISSSICHLTNESDGHTTSLYGIGFGPFIITNKHLFRRNNGTLVVQSLHGVFKVKDTTTLQQHLVDGRDMIIIRMPKDFPPFPQKLKFREPQREERICLVTTNFQTKSMSSMVSDTSCTFPSGDGIFWKHWIQTKDGQCGSPLVSTRDGFIVGIHSASNFTNTNNYFTSVPKNFMELLTNQEAQQWVSGWRLNADSVLWGGHKVFMVKPEEPFQPVKEATQN [L235N],,,,0.0437,0.0698,,
MGISLFKGPRDYNPISSSICHLTNESDGHTTSLYGIGFGPFIITNKHLFRRNNGTLVVQSLHGVFKVKDTTTLQQHLVDGRDMIIIRMPKDFPPFPQKLKFREPQREERICLVTTNFQTKSMSSMVSDTSCTFPSGDGIFWKHWIQTKDGQCGSPLVSTRDGFIVGIHSASNFTNTNNYFTSVPKNFMELLTNQEAQQWVSGWRLNADSVLWGGHKVFMVKPEEPFQPVKEATQL [E3I],,0.0562,0.0837,0.105,,,
MGESLFKGPRDYNPISSSICHLTNESDGHVTSLYGIGFGPFIITNKHLFRRNNGTLVVQSLHGVFKVKDTTTLQQHLVDGRDMIIIRMPKDFPPFPQKLKFREPQREERICLVTTNFQTKSMSSMVSDTSCTFPSGDGIFWKHWIQTKDGQCGSPLVSTRDGFIVGIHSASNFTNTNNYFTSVPKNFMELLTNQEAQQWVSGWRLNADSVLWGGHKVFMVKPEEPFQPVKEATQL [T30V],,0.0669,0.0689,,,,
MGESLFKGPRDYNPISSSICHLTNESDGHTHSLYGIGFGPFIITNKHLFRRNNGTLVVQSLHGVFKVKDTTTLQQHLVDGRDMIIIRMPKDFPPFPQKLKFREPQREERICLVTTNFQTKSMSSMVSDTSCTFPSGDGIFWKHWIQTKDGQCGSPLVSTRDGFIVGIHSASNFTNTNNYFTSVPKNFMELLTNQEAQQWVSGWRLNADSVLWGGHKVFMVKPEEPFQPVKEATQL [T31H],,0.0436,,0.0778,0.0675,0.0702,0.0562
MGESLFKGPRDYNPISSSICHLTNESDGHTTSEYGIGFGPFIITNKHLFRRNNGTLVVQSLHGVFKVKDTTTLQQHLVDGRDMIIIRMPKDFPPFPQKLKFREPQREERICLVTTNFQTKSMSSMVSDTSCTFPSGDGIFWKHWIQTKDGQCGSPLVSTRDGFIVGIHSASNFTNTNNYFTSVPKNFMELLTNQEAQQWVSGWRLNADSVLWGGHKVFMVKPEEPFQPVKEATQL [L33E],0.0637,0.0644,0.0574,0.0542,0.064,,
MGESLFKGPRDYNPISSSICHLTNESDGHTTSLWGIGFGPFIITNKHLFRRNNGTLVVQSLHGVFKVKDTTTLQQHLVDGRDMIIIRMPKDFPPFPQKLKFREPQREERICLVTTNFQTKSMSSMVSDTSCTFPSGDGIFWKHWIQTKDGQCGSPLVSTRDGFIVGIHSASNFTNTNNYFTSVPKNFMELLTNQEAQQWVSGWRLNADSVLWGGHKVFMVKPEEPFQPVKEATQL [Y34W],0.0681,,,,,,
MGESLFKGPRDYNPISSSICHLTNESDGHTTSLYCIGFGPFIITNKHLFRRNNGTLVVQSLHGVFKVKDTTTLQQHLVDGRDMIIIRMPKDFPPFPQKLKFREPQREERICLVTTNFQTKSMSSMVSDTSCTFPSGDGIFWKHWIQTKDGQCGSPLVSTRDGFIVGIHSASNFTNTNNYFTSVPKNFMELLTNQEAQQWVSGWRLNADSVLWGGHKVFMVKPEEPFQPVKEATQL [G35C],,,0.0574,,0.0586,,
